{
  "source": "paper PMC12136788",
  "binders": {"B1": {"name": "chr11:95129132:95129233:+|CDS|ENSG00000149218|msi1|total|mutant (ssRNA)", "RNA": "GGGAGUUCUACAGUCCGACGAUCAAUCCUGAAGAACAUUGUCUAUUUCCUGUGGUGUGUUACCAAGCAGGUGAUUAAUGGCACCGAAAGUUGCCUUUACCGCCUGGGCUCAGCCACCAUCUCAUACUUCAUGGCCAUUGGGGACAACAGAGGAUUGAGCAUCA"}, "B2": {"name": "chrX:40074726:40074839:-|CDS|ENSG00000183337|unk|total|mutant (ssRNA)", "RNA": "GGGAGUUCUACAGUCCGACGAUCGCGCUGGGCUUGGACAGGCCUGCCAGCGACAAACAGAGCCCUCUCAACAUCAAUGGUGCCCGUUAUCUGCGGCUGCCCUGGGUCAAUCCUUACAUGGAGGGUGCCACGCCAGCCAUCUACCAACAGAGGAUUGAGCAUCA"}, "B3": {"name": "chrX:48915045:48915146:-|CDS|ENSG00000102096|unk|total|mutant (ssRNA)", "RNA": "GGGAGUUCUACAGUCCGACGAUCCCAGCACUGCCAUUCCCGUGGAGUUGUCCAUCGUGACAUCAAGGAUGAGAACAUCCUGACCGACCUACGCCGUGGCUGUGCCAAACUCAUUGAUUUUGGUUCUGGUGCCCUGCUUCAUGACAACAGAGGAUUGAGCAUCA"}, "B4": {"name": "chr2:218264180:218264222:-|3pUTR|ENSG00000127837|msi1_unk|total|mutant (ssRNA)", "RNA": "GGGAGUUCUACAGUCCGACGAUCUUGAGGUUCCCGUUCUUUCCCUUCCCAAGUCUCUGGGGGUGGAAAGGAGGAAGAGAUACCCGUUAAAGAUUUUAAAAAUGUAAAUAAAAUAUACUUCCCAGAGACAGAGUCUGUGUGGAUCAACAGAGGAUUGAGCAUCA"}, "B5": {"name": "chr1:156742365:156742464:-|3pUTR|ENSG00000143321|msi1_unk|FALSE|overlapping (ssRNA)", "RNA": "GGGAGUUCUACAGUCCGACGAUCAUUUCUGAGGUGCACUGGGAGGCUCCCCUUCUAUUUGGGGCUUGAUGACUUUCUUUUUGUAGCUGGGGCUUUGAUGUUCCUUCCAGUGUCAUUUCUCAUCCACAUACCCUGACCUGGCCCCAACAGAGGAUUGAGCAUCA"}, "B6": {"name": "chr3:121436121:121436275:-|CDS|ENSG00000051341|control|control|control (ssRNA)", "RNA": "GGGAGUUCUACAGUCCGACGAUCAGUCCAAGGAUCAGCAGCUGAUAUUGUCAAAAUAGCCACAGUUAACAUUCAGAAGCAAUUAGAGACCUUCCACUCAACCUUCAAAUCCCAUGGUCAUCGAGAGGGUAUGCUCCAAAGUGACAACAGAGGAUUGAGCAUCA"}, "B7": {"name": "chr17:2300308:2300409:-|CDS|ENSG00000070366|unk|FALSE|unique (ssRNA)", "RNA": "GGGAGUUCUACAGUCCGACGAUCGACCCAGAAAAUAAUCGGGGACAAGAAUCCUUUCCUAGGACUGCUGGACAAGAGGAUCGUAGUCUAAAAAUUAUCAAAAGAACAAAGAAACCCGACCUGCAGAUCUAUCAGCCUGGACGACAACAGAGGAUUGAGCAUCA"}, "B8": {"name": "chr12:89590234:89590335:-|3pUTR|ENSG00000070961|msi1|FALSE|bound_elsewhere (ssRNA)", "RNA": "GGGAGUUCUACAGUCCGACGAUCUUUGCCUACAAUUUACCUUGUUAAAUAUUGUAGAUAAAUUGCUAAUACUAAUAGCCAAAUAGAUAACACUAAUGCUUUGUUUAAAAAAACGAAAAAAACAAAACAAAACAAAAAAACAUGCAACAGAGGAUUGAGCAUCA"}, "B9": {"name": "chr8:80499649:80499757:+|CDS|ENSG00000205189|unk|total|mutant (ssRNA)", "RNA": "GGGAGUUCUACAGUCCGACGAUCUAAGACUUUAUAUUGCUUUUCAAACAAAGAAAGCCCUAACCAAAACAAUACUACCCACUCCGAUAUUGCUGCAGUUCAAGGUUUUUCAGUCAUCUUGGACUUCUUGUAUUCUGGUAACCUCAACAGAGGAUUGAGCAUCA"}, "B10": {"name": "chr3:17009782:17009883:+|CDS|ENSG00000154822|unk|total|mutant (ssRNA)", "RNA": "GGGAGUUCUACAGUCCGACGAUCAAUUCAAUGGUUGAGGGUUCAGAACUCAAAAAGGUUCGCUCCAACUCCCGAAUUUAUCACCGGUACUUUUUACUGGAUGCUGACAUGCAGAGCCUAAGGUGGGAGCCAUCUAAGAAGGAUCAACAGAGGAUUGAGCAUCA"}, "B11": {"name": "chr15:52122579:52122653:-|3pUTR|ENSG00000069966|msi1_unk|total|mutant (ssRNA)", "RNA": "GGGAGUUCUACAGUCCGACGAUCUCUUCACAUGUAAACCGAUAUUACUUCCCGAGGAGCUCCGAGUUUAUUGCAGUGCCGCUCCGGGGAGCAACCCAUGGCUCACAGGUCACUAAGCGUCUCCAAUAUGACUAUUAAAACUGUCAACAGAGGAUUGAGCAUCA"}, "B12": {"name": "chr7:105566322:105567453:-|three_prime_utr|ENSG00000185055|control|control|control (ssRNA)", "RNA": "GGGAGUUCUACAGUCCGACGAUCAGUUUCAUUAAUUCAGAAUUUCAUCAUAUAACUUGAAAUCCAAUUGGCUUCCUCUUUCUUAGAAACAAAAACCAAAGAAACCUUUUUCUGAAAGACAUUAUUUUCCAGUAUUAGGCCAAUCAACAGAGGAUUGAGCAUCA"}, "B13": {"name": "chr10:11763304:11763405:+|CDS|ENSG00000134463|unk|total|mutant (ssRNA)", "RNA": "GGGAGUUCUACAGUCCGACGAUCGGGCUGCUCCGCAAGGUGGUGCCAGAGGCGGAGCUGCAGGAGGAGACCAUGCGGAUCGCCCGGAAGAUCGCAUCGCUGAGCCGUCCGGUGGUGUCCCUGGGCAAAGCCACCUUCUACAAGCAACAGAGGAUUGAGCAUCA"}, "B14": {"name": "chr17:82078764:82078865:-|3pUTR|ENSG00000169710|msi1_unk|FALSE|overlapping (ssRNA)", "RNA": "GGGAGUUCUACAGUCCGACGAUCCCGUGGGGUCUGCGCUUGGUCUUUCUGUGCUUGGAUUUGCAUAUUUAUUGCAUUGCUGGUAGAGACCCCCAGGCCUGUCCACCCUGCCAAGACUCCUCAGGCAGCGUGUGGGUCCCGCACCAACAGAGGAUUGAGCAUCA"}},
  "note": "This is one part of the list.",
  "data": [
    {"target": "T1, UNK ZnF1-6 (called full-length) (human, UniProt Q9C0B0 30-357)", "T1 sequence": "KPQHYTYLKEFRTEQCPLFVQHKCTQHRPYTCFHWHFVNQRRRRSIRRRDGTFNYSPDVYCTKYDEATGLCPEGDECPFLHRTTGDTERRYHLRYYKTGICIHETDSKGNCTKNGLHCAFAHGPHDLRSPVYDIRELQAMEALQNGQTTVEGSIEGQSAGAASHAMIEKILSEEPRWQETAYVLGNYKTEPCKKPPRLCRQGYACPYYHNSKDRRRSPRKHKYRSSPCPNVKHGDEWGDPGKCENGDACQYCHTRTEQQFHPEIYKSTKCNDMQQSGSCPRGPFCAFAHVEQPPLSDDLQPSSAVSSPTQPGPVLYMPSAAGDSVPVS", "assay": "nsRBNS (natural sequence RNA bind-n-seq); RBNS binding buffer (assumed for nsRBNS): 25 mM Tris pH 7.5, 150 mM KCl, 3 mM MgCl2, 0.01% Triton X-100, 500 ug/ml BSA, 20 U/ml SUPERase-In, 4 C; UNK is unkempt and MSI1 is Musashi-1; names of the RNAs are library labels; protein concentration not given here; high values mean tight binding", "units": {"binding signal": "enrichment R"}, "values": [
      {"binder": "B1", "binding signal": 0.449},
      {"binder": "B2", "binding signal": 0.869},
      {"binder": "B3", "binding signal": 0.637},
      {"binder": "B4", "binding signal": 0.812},
      {"binder": "B5", "binding signal": 0.801},
      {"binder": "B6", "binding signal": 0.755},
      {"binder": "B7", "binding signal": 1.13},
      {"binder": "B8", "binding signal": 1.06},
      {"binder": "B9", "binding signal": 0.496},
      {"binder": "B10", "binding signal": 0.597},
      {"binder": "B11", "binding signal": 0.499},
      {"binder": "B12", "binding signal": 0.874},
      {"binder": "B13", "binding signal": 0.722},
      {"binder": "B14", "binding signal": 0.749}
    ]}
  ]
}
